# Measurements as given in paper PMC6919601, “Identification of Plasmodium dipeptidyl aminopeptidase allosteric inhibitors by high throughput screening” (PLoS ONE, 2019).
# Screen size: about 110,000 compounds; about 230 (0.21%) showed an effect of 50% or more. The list shows a part of the results.
# Molecular target: DPAP1 (Plasmodium falciparum, UniProt Q8IIJ9)
# Experiment: primary screen, percent inhibition; read by cleavage of a fluorogenic dipeptide substrate; higher = more effect of the substance
# Set-up: species or system P. falciparum D10 trophozoite lysates; single well
# 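Also: 30 min substrate incubation versus DMSO and 10 µM JCP410 controls.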
# DPAP1, sequence (Q8IIJ9 whole entry, looked up): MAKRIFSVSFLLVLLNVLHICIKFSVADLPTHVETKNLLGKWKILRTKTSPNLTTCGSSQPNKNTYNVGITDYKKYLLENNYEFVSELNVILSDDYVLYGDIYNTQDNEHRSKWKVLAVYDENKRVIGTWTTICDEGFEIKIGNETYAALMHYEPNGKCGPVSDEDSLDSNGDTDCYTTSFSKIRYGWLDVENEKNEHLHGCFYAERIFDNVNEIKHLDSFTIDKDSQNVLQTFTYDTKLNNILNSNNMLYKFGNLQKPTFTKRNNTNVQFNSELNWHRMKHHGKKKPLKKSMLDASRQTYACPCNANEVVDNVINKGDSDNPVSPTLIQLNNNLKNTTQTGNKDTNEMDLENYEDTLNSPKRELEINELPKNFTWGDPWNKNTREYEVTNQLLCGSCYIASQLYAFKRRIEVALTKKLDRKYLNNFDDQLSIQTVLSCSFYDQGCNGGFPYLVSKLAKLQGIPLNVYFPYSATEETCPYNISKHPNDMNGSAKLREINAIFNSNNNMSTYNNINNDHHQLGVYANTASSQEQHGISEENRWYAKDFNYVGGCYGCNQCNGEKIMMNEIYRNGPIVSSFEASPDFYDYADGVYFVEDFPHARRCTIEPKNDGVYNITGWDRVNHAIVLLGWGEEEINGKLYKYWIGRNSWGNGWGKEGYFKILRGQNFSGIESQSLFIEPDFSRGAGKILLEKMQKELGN
row,SMILES,% Inhibition @ 10 uM [%]
1,COc1cc2c(cc1OC)CC(C)(C)N(C(=O)c1ccccc1)C2,2.17
2,O=C(O)c1ccc(CS(=O)c2ccc(Cl)cc2)o1 (stereo not drawn),-1.28
3,CCOC(=O)CC(=N)Nc1sc2c(c1C#N)CCCC2,12.2
4,O=C1N/C(=C\c2ccc(N3CCOCC3)c(F)c2)C(=O)N1Cc1ccccc1,-4.14
5,Cc1ccc(CNC(=O)CNS(=O)(=O)c2ccc(Br)cc2)cc1,0.161
6,CC1=C(C(=O)Nc2ccccc2C)C(c2ccc(Cl)cc2Cl)NC(S)=N1 (stereo not drawn),-0.13
7,CCOc1ccc2ccccc2c1/C=N/n1cncn1,4.1
8,COc1cc(-c2c(C#N)c(N)nc(SCC(=O)O)c2C#N)cc(OC)c1OC,2.8
9,COc1ccc(CCNC(=O)Cn2ccc3cc(S(=O)(=O)N4CCCCC4)ccc32)c(OC)c1,-1.45
10,O=C(CS)Nc1ccc(C(=O)O)cc1,2.17
11,O=S(=O)(c1ccccc1)N1N=C(c2ccccc2)CC1c1ccccc1 (stereo not drawn),-10
12,Nc1c(C(=O)O)noc1C(=O)c1ccccc1,0.0882
13,Cc1ccc(-c2nnc(NC3CCCCC3)c3ccccc23)cc1S(=O)(=O)N1CCN(C)CC1,-2.65
14,CCOc1ccc([N+]2=C3SCCCN3C(O)(c3ccccc3)C2)cc1 (stereo not drawn),7.77
15,CCCc1cc(O)n2ncnc2n1,4.18
16,COc1cc(OC)cc(-c2nc3n(n2)C(c2cccc(OC)c2OC)C2=C(O)CCCC2=N3)c1 (stereo not drawn),0.275
17,COc1ccc(-c2cc(NC(=O)N3CCc4ccccc4C3)c3ccccc3n2)cc1,-8.79
18,COc1ccccc1/C=C/c1nn2c(Cn3cnc4ccccc43)nnc2s1,2.89
19,COc1ccc(OC)c(CNC(=O)Cc2csc3ccccc23)c1,1.63
20,C/C(=C/S(=O)(=O)c1ccc(C)cc1)N1CCCC1,2.19
21,O=C(COc1ccccc1O)NCCN1CCOCC1,-5.28
22,CCOC(=O)c1nn(-c2ccc(C)cc2)c(C)c1C(C)=O,6.3
23,CCOC(=O)N1CCC(NC(=O)Cn2ncn3nc(-c4ccc(OC)cc4)cc3c2=O)CC1,0.623
24,N#CC1=C(N)Oc2[nH]nc(-c3cccs3)c2C1c1cc(F)ccc1F (stereo not drawn),-4.65
25,CC(SCCc1ccccn1)C(=O)O (stereo not drawn),-8.51
26,NC(=O)C(=O)Nc1ccc2c(c1)OCCO2,2.41

row,SMILES,% Inhibition @ 10 uM [%]
1,COc1ccc2[nH]cc(CCNC(=O)C3CC3)c2c1,-1.76
2,CCOC(=O)c1c(C)n(Cc2ccc(OC)c(OC)c2)c2c1cc(O)c1ccccc12,-1.24
3,CCn1cnc2cc(NC(=O)c3ccco3)ccc21,0.709
4,Cc1sc(NC(=O)COc2ccccc2C(C)C)c(C(N)=O)c1C,1.57
5,C/C=C/CSc1nc2c(c(=O)n(C)c(=O)n2C)n1Cc1ccccc1,-2.68
6,NC(=O)Cn1cnc2c(nnn2Cc2ccccc2F)c1=O,-2.16
7,O=C(Nc1cccc(C(F)(F)F)c1)/C(=C/c1cccnc1)NC(=O)c1cccs1,1.01
8,O=C1CC(NCC(O)c2ccccc2)C(=O)N1c1ccc(Br)cc1 (stereo not drawn),-2.78
9,CCN1C(=O)S/C(=C/c2ccc(-c3cc(C(=O)O)ccc3C)o2)C1=O,6.79
10,COc1ccc(C2CC(=O)C(/C=N/CCc3ccccc3)=C(O)C2)cc1OC (stereo not drawn),1.57
11,CCN(CC)CCCOc1ccc(Br)cc1,5.06
12,O=C(Nc1cc([N+](=O)[O-])ccc1O)c1cccc2ccccc12,-1.74
13,CCOc1ccc(/C=C/c2nc(C#N)c(N(C)Cc3ccccc3)o2)cc1,3.27
14,O=C(Cn1nc(C(F)(F)F)c2c1CCCC2)NCCc1ccccc1,-4.62
15,CCOC(=O)C1=C(C)N(C2CCCCC2)C(=O)C1(NC(=O)c1cccc(OC)c1)C(F)(F)F (stereo not drawn),2.57
16,O=C(COc1ccc(Cl)cc1Cl)NCCSc1nnnn1-c1ccccc1,0.569
17,Cc1cc(N2CCC(C(=O)N3CCCCC3C)CC2)n2nc(C)c(-c3ccc(Cl)cc3)c2n1 (stereo not drawn),-3.7
18,OCCN1CCN(CC2CC=CCC2)CC1 (stereo not drawn),-5.65
19,Cc1nn(-c2ccccc2)c2c1C(c1ccccc1OC(C)C)C(C#N)=C(N)O2 (stereo not drawn),-1.64
20,CC(C)(C)C(=O)N(Cc1nc(-c2ccccc2)no1)C1CCCCC1,2.14
21,CCc1ccc(NC(=O)c2c(Br)cnn2CC)cc1,-5.26
22,Fc1ccc(N2CCN(CC3CCCCC3)CC2)cc1,-2.34
23,Cc1ccc(C)c(OCC(=O)NCc2ccc(Cl)cc2)c1,-6.74
24,Cc1nc(C)c(-c2csc(Nc3ccc(N)cc3)n2)s1,-0.711
25,O=C(C[n+]1ccccc1)c1ccc(NC(=O)c2ccccc2)cc1,5.18
